Laboratory results published in PubChem BioAssay AID1461 (National Center for Advancing Translational Sciences (NCATS), 2008).
The whole screen tested about 220,000 compounds, of which about 2,300 (1%) were called active. The shares of active, inactive and inconclusive entries below differ from those in the screen. The call rests on the fitted dose curve; in most records, active means well fitted inhibition curve with a large enough effect; inconclusive means small, poorly fitted or top-dose-only effect, or effect the other way; inactive means no such curve, though single readings can be large or run the other way. Potencies beside an inconclusive call are fits to weak or partial responses and may not hold up.

biological target: Neuropeptide S receptor (Homo sapiens) (UniProt Q6W5P4); assay: qHTS Assay for Antagonists of the Neuropeptide S Receptor: cAMP Signal Transduction; settings: CHO-NPSR cells, cAMP TR-FRET, antagonist mode; activity change, negative = inhibition: at 38.3 µM (top of the series) unless noted; further: nearly all actives have a fitted effect of over 50% in size
Chain of UniProt Q6W5P4 (Q6W5P4 whole entry, looked up): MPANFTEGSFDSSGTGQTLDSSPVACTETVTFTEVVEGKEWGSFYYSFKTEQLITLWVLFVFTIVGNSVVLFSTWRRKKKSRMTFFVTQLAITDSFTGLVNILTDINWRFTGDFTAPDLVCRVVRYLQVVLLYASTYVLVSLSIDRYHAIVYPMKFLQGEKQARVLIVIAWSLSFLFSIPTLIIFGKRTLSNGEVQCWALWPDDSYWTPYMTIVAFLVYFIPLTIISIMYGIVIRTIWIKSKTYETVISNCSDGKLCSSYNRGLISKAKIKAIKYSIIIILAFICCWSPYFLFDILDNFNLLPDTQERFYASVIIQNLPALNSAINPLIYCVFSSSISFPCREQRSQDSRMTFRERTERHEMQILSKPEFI
On the % scale 0 is the no-effect control and ±100 the full control effect; potency means the concentration at half of the fitted maximal effect; tags describe the fitted curve by direction and shape.

| SMILES | Potency | activity change, negative = inhibition |
| --- | --- | --- |
| C(=N\n1cnnc1)/c1ccc(N2CCOCC2)s1 | inconclusive: 15.8 µM [inhibitor, partial curve, poor fit] |  |
| COc1ccc(CNCc2cn(-c3cccc(F)c3)nc2-c2ccc(C)o2)cc1 | inconclusive: 10 µM [activator, single point] |  |
| CC(C)Oc1cccc(-c2cc(C(=O)N3CCN(c4ncccn4)CC3)c3ccccc3n2)c1 | inconclusive: 25.1 µM [inhibitor, single point] |  |
| O=C(NC(=S)Nc1ccc(S(=O)(=O)NC2CCCCC2)cc1)c1cccs1 | inconclusive: 31.6 µM [inhibitor, single point] |  |
| O=C(Nc1cccc(Cl)c1)c1cc([N+](=O)[O-])ccc1N1CCN(CCO)CC1 | active: 10 µM |  |
| Cc1csc(NC(=O)c2ccc(C)c([N+](=O)[O-])c2)n1 | inactive |  |
| COc1ccc2c(c1)CCc1c(C(=O)NCc3ccc(F)cc3)noc1-2 | inactive |  |
| c1ccc(Cn2c(-c3cccs3)nc3nc4ccccc4nc32)cc1 | inconclusive: 20 µM [inhibitor, single point] |  |
| O=c1c2ccccc2c(-c2cccc(C(F)(F)F)c2)nn1-c1ccccc1 | inconclusive: 12.6 µM [activator, single point] |  |
| Cc1ccc(-c2noc(CN(C(=O)C(c3ccccc3)c3ccccc3)C(C)C)n2)cc1 | inconclusive: 10 µM [inhibitor, partial curve, poor fit] |  |
| O=C(N/N=C/c1cccs1)c1cc(-c2ccc3ccccc3c2)n[nH]1 |  | inconclusive: -30.8% [inhibitor] [at 46.1 µM] |
| CCOc1ccc(-c2nnc(SCc3nnc(-c4ccccc4)o3)n2-c2ccccc2F)cc1 | inconclusive: 10 µM [inhibitor, partial curve] |  |
| COc1ccc(Cl)cc1NC(=O)CN(C)CC(=O)Nc1ccccc1-c1ccccc1 | inconclusive: 10 µM [inhibitor, single point] |  |
| CCC(c1nnnn1C(C)(C)C)N1CCN(c2cc(Cl)ccc2C)CC1 (stereo not given) | inconclusive: 7.94 µM [inhibitor, partial curve] |  |
| Cc1ccc2c(c1)c1ccc3c(c1n2C)C(=O)C=CC3=O | active: 7.94 µM |  |
| CCN(CC)S(=O)(=O)c1ccc(N/N=C/c2ccc(O)cc2)nc1 | inactive |  |
| O=S(=O)(Nc1cccc2c1CCCC2)c1cccc(C(F)(F)F)c1 | inconclusive: 12.6 µM [inhibitor, single point] |  |
| O=C(CCc1ccc(Oc2cc([N+](=O)[O-])cc([N+](=O)[O-])c2)cc1)N1CCCCC1 | inconclusive: 0.004 µM [inhibitor, full curve, poor fit] |  |
| COc1ccc(-n2c(C)nc3cc(C(=O)NCc4ccc5c(c4)OCO5)ccc32)cc1 | inactive |  |
| CN(C)CC(O)COc1cc2ccccc2cc1C(=O)N1CCCCC1 (stereo not given) | inactive |  |
| N#C/C(=C\c1ccccc1)C(=O)NC(=O)Oc1ccccc1 | inactive |  |
| c1ccc(OCCCc2nc(-c3ccccn3)no2)cc1 | inconclusive: 25.1 µM [activator, single point] |  |
| COc1ccc2[nH]c(=O)c(CN(CCc3ccccc3)Cc3nnnn3CC3CCCO3)cc2c1 (stereo not given) | inactive |  |
| COc1ccc(C(NC(=O)C(C)(C)C)NC(=O)C(C)(C)C)cc1 | inconclusive: 3.98 µM [inhibitor, single point] |  |

| SMILES | Potency | activity change, negative = inhibition |
| --- | --- | --- |
| COc1nc(Cl)cn(-c2ccc(C)cc2)c1=O | inactive |  |
| N#Cc1c(Sc2ncc(C(F)(F)F)cc2Cl)nsc1C/C=N\OCc1ccccc1Br | active: 10 µM |  |
| O=C(Nc1cc(=O)c2ccccc2o1)N1CCOCC1 | inconclusive: 7.94 µM [inhibitor, partial curve] |  |
| Cc1ccc(-n2c(N)c(C(=O)Nc3c(C)n(C)n(-c4ccccc4)c3=O)c3nc4ccccc4nc32)cc1 | inconclusive: 10 µM [inhibitor, single point] |  |
| CCOC(=O)C1CCCN(Cc2nc(N)nc(Nc3ccc(Cl)cc3)n2)C1 (stereo not given) | inconclusive: 25.1 µM [inhibitor, single point] |  |
| Clc1ccc(OCc2nnc(SCc3nc4ccccc4[nH]3)n2Cc2ccco2)cc1 | inconclusive: 7.94 µM [inhibitor, partial curve] |  |
| NC(=O)c1cc(-c2ccccc2)sc1NC(=O)CN1CCCCC1 | inconclusive: 10 µM [inhibitor, single point] |  |
| CCn1c(CNc2ccccc2Cl)nnc1SCC(=O)OC1CCCCC1 | inconclusive: 10 µM [inhibitor, single point] |  |
| CCC(Sc1nc2n[nH]c(C)c2c(=N)n1-c1cccc(Cl)c1C)C(=O)N(CC)CC (stereo not given) | inconclusive: 7.94 µM [inhibitor, partial curve, poor fit] |  |
| N#CCCN(Cc1cccnc1)C(=S)NCc1ccco1 | inactive |  |
| O=S(=O)(c1ccc(-c2csc(-c3cccnc3)n2)cc1)N1CCCC1 | inconclusive: 10 µM [inhibitor, partial curve] |  |
| Cc1ccc(C(=O)OCC(=O)Nc2sccc2C(N)=O)cc1NC(=O)c1ccco1 | inconclusive: 12.6 µM [inhibitor, single point] |  |
| CCCc1ccc(-c2cc(C(=O)NC3=NCCS3)c3ccccc3n2)cc1 | inconclusive: 5.01 µM [inhibitor, partial curve] |  |
| Nc1nnc(CC(=O)N/N=C/c2ccc(-c3ccccc3)o2)s1 | inactive |  |
| Clc1ccc(-c2nc(NCCCN3CCOCC3)c3ccccc3n2)cc1 | inconclusive: 25.1 µM [inhibitor, single point] |  |
| COc1cc(-c2cc(C(=O)O)c3c(OC)c(OC)c(OC)cc3n2)ccc1O | inactive |  |
| COC(=O)c1sc(NC(=O)c2oc3ccccc3c2C)nc1C | inconclusive: 12.6 µM [inhibitor, single point] |  |
| c1ccc(-c2nc(-c3ccncc3)n[nH]2)nc1 | inactive |  |
| CC(C)(C)NC(=O)CSc1nc2ccc(NC(=O)CSc3nnnn3Cc3ccccc3)cc2s1 | inconclusive: 25.1 µM [inhibitor, single point] |  |
| COc1cc(NS(=O)(=O)c2ccc(Nc3nc(-c4cccc([N+](=O)[O-])c4)cs3)cc2)nc(OC)n1 | inactive |  |
| N#Cc1c2c(c(NCCCN3CCOCC3)n3c1nc1ccccc13)CCC2 | inconclusive: 15.8 µM [inhibitor, partial curve] |  |
| Cc1ccc(OCC(=O)Nc2nnn(C)n2)c(C)c1 | inactive |  |
| Cc1ccc2c(c1)nnn2C1CCN(CC(=O)Nc2ccccc2N2CCOCC2)CC1 | inconclusive: 20 µM [inhibitor, single point] |  |
| CC(C)C[C@H](NC(=O)c1nc[nH]c1C(=O)NCCCCCNC(=O)OC(C)(C)C)C(=O)OC(C)(C)C | inconclusive: 10 µM [activator, partial curve] |  |

| SMILES | Potency | activity change, negative = inhibition |
| --- | --- | --- |
| CC1(C)Cc2c(c(N3CCOCC3)nc3sc4c(NCCN5CCOCC5)nnnc4c23)CS1 | inconclusive: 5.01 µM [activator, full curve, poor fit] |  |
| CC(C)n1nnnc1SCC(=O)NCc1ccc2c(c1)OCO2 | inactive |  |
| CCOC(=O)c1cnn(-c2nc(SC)nc3sc4c(c23)CCCC4)c1N | inconclusive: 10 µM [inhibitor, single point] |  |
| CC1CCN(S(=O)(=O)c2ccc3c(c2)C(=NO)c2cc(S(=O)(=O)N4CCC(C)CC4)ccc2-3)CC1 | active: 0.501 µM |  |
| Cc1[nH]n(-c2ncc(-c3ccccc3)s2)c(=O)c1C(c1ccc(Cl)cc1)C(C#N)C#N (stereo not given) | inconclusive: 12.6 µM [inhibitor, single point] |  |
| O=C(COc1ccccc1)NC(=S)Nc1ccc2c(c1)Cc1ccccc1-2 | inconclusive: 25.1 µM [inhibitor, single point] |  |
| Cc1cc(=O)oc2cc(OCC(=O)N3c4ccccc4CC3C)ccc12 (stereo not given) |  | inactive: 2.25% [at 7.67 µM] |
| CC(C)OC(=O)c1cn(-c2ccccc2)nc1-c1ccco1 | inconclusive: 10 µM [inhibitor, single point] |  |
| CN1CCc2nc3sc(C(=O)NCc4ccccc4)c(N)c3cc2C1 | active: 12.6 µM |  |
| Cc1cccc(NC(=O)c2cc(-c3ccc(C)s3)nc3ccccc23)n1 | inactive |  |
| CC(=O)Nc1ccc(S(=O)(=O)Oc2ccc(C(=S)N3CCC(O)CC3)cc2)cc1 | inactive |  |
| CCN(CC)S(=O)(=O)c1ccc2c(c1)nc(CCC(=O)Nc1cccc(C(F)(F)F)c1)n2CC | inconclusive: 20 µM [inhibitor, partial curve, poor fit] |  |
| CSC1=NCCN1C(=O)c1ccc(C)cc1 | inactive |  |
| COc1cccc(NC(=O)N2CCCC(C(=O)NCc3ccc(F)cc3)C2)c1 (stereo not given) | inactive |  |
| Cc1ccccc1N/C(SCc1ccc(Cl)cc1)=C(/C#N)C(=O)NCc1ccco1 | inconclusive: 10 µM [inhibitor, single point] |  |
| Cc1cccc(C)c1NC(=O)CSc1nc(C)c(CC(=O)c2ccc(Br)cc2)c(C)c1C#N | inconclusive: 3.16 µM [inhibitor, single point] |  |
| CCN1C(=O)/C(=C/c2ccc(C)s2)SC1=Nc1ccc(OC)cc1 | inactive |  |
| O=[N+]([O-])c1cc(S(=O)(=O)CCCN2CCOCC2)ccc1F | inconclusive: 25.1 µM [activator, single point] |  |
| CC1=NOC(=O)/C1=C\c1ccc(-c2ccccc2Br)o1 | active: 10 µM |  |
| COc1cc([N+](=O)[O-])cc(/C=N/NC(=O)CSc2nnc(-c3ccccc3)n2C)c1O | inactive |  |
| CN(C)/C=C(/C#N)C(=O)c1cccc(Oc2ccc(C(C)(C)C)cc2)c1 | inconclusive: 10 µM [inhibitor, single point] |  |
| O=S(=O)(O/N=C1\CCCc2ccccc21)c1ccccc1 | inactive |  |
